# Source: the supplement of paper PMC8728848
# Some of the results follow.
# B1: DrGRIFIN (Danio rerio), Q6DGJ1 (protein)
# chain: MTLRFEASCPDGLCPGWSVILKGETPPEASKFEINFLCDRDDRVAFHFNPRFTESDIICNSYMANRWGQEERCNHFPLGVEEPFQIEIYSDNDHFHVYIDKAKVMQYKHRVEDLKTITKLQVVNDVKISSLEITKKLFY
# Assays:
# Test in all cases: glycan array binding signal (z-score within array); higher = stronger binding
# Conditions in all cases: glycan notation: IUPAC condensed, linker removed
# Neu5Ac(a2-3)GalNAc = biological target: Neu5Ac(a2-3)GalNAc
# In short: (§1)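 Glycan array binding is given as a within-array Z-score, which can be read as non-binding when negative. The arrays, 3228 of them, came from the Consortium for Functional Glycomics database and were retained only where the protein sequence was available. Z-scores were averaged across arrays of the same protein sequence at different concentrations or buffers and across linkers.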
# [1] = biological target: Neu5Ac(a2-3)GalNAc(b1-4)GlcNAc
# In short: as §1
# [2] = biological target: Neu5Ac(a2-3)[GalNAc(b1-4)]Gal(b1-4)Glc
# In short: as §1
# [3] = biological target: Neu5Ac(a2-3)[GalNAc(b1-4)]Gal(b1-4)GlcNAc
# In short: as §1
# [4] = biological target: Neu5Ac(a2-3)[GalNAc(b1-4)]Gal(b1-4)GlcNAc(b1-3)GalNAc
# In short: as §1
# [5] = biological target: Neu5Ac(a2-3)[Neu5Ac(a2-6)]GalNAc
# In short: as §1
# Neu5Ac(a2-6)Gal = biological target: Neu5Ac(a2-6)Gal
# In short: as §1
# [6] = biological target: Neu5Ac(a2-6)Gal(b1-3)GlcNAc(b1-3)[Gal(b1-4)GlcNAc(b1-6)]Gal(b1-4)Glc
# In short: as §1
# Neu5Ac(a2-6)Gal(b1-4)Glc = biological target: Neu5Ac(a2-6)Gal(b1-4)Glc
# In short: as §1
# [7] = biological target: Neu5Ac(a2-6)Gal(b1-4)GlcNAc
# In short: as §1
# [8] = biological target: Neu5Ac(a2-6)Gal(b1-4)GlcNAc(b1-2)Man
# In short: as §1
# [9] = biological target: Neu5Ac(a2-6)Gal(b1-4)GlcNAc(b1-2)Man(a1-3)Man(b1-4)GlcNAc(b1-4)GlcNAc
# In short: as §1
# [10] = biological target: Neu5Ac(a2-6)Gal(b1-4)GlcNAc(b1-2)Man(a1-3)[Gal(b1-4)GlcNAc(b1-2)Man(a1-6)]Man(b1-4)GlcNAc(b1-4)GlcNAc
# In short: as §1
# [11] = biological target: Neu5Ac(a2-6)Gal(b1-4)GlcNAc(b1-2)Man(a1-3)[GlcNAc(b1-4)][Neu5Ac(a2-6)Gal(b1-4)GlcNAc(b1-2)Man(a1-6)]Man(b1-4)GlcNAc(b1-4)GlcNAc
# In short: as §1
# [12] = biological target: Neu5Ac(a2-6)Gal(b1-4)GlcNAc(b1-2)Man(a1-3)[Man(a1-6)]Man(b1-4)GlcNAc(b1-4)GlcNAc
# In short: as §1
# [13] = biological target: Neu5Ac(a2-6)Gal(b1-4)GlcNAc(b1-2)Man(a1-3)[Neu5Ac(a2-3)Gal(b1-4)GlcNAc(b1-2)Man(a1-6)]Man(b1-4)GlcNAc(b1-4)GlcNAc
# In short: as §1
# [14] = biological target: Neu5Ac(a2-6)Gal(b1-4)GlcNAc(b1-2)Man(a1-3)[Neu5Ac(a2-6)Gal(b1-4)GlcNAc(b1-2)Man(a1-6)]Man(b1-4)GlcNAc(b1-4)GlcNAc
# In short: as §1
# [15] = biological target: Neu5Ac(a2-6)Gal(b1-4)GlcNAc(b1-2)Man(a1-3)[Neu5Ac(a2-6)Gal(b1-4)GlcNAc(b1-2)Man(a1-6)]Man(b1-4)GlcNAc(b1-4)[Fuc(a1-6)]GlcNAc
# In short: as §1
# [16] = biological target: Neu5Ac(a2-6)Gal(b1-4)GlcNAc(b1-2)Man(a1-6)Man(b1-4)GlcNAc(b1-4)GlcNAc
# In short: as §1
# [17] = biological target: Neu5Ac(a2-6)Gal(b1-4)GlcNAc(b1-2)Man(a1-6)[Gal(b1-4)GlcNAc(b1-2)Man(a1-3)]Man(b1-4)GlcNAc(b1-4)GlcNAc
# In short: as §1
# [18] = biological target: Neu5Ac(a2-6)Gal(b1-4)GlcNAc(b1-2)Man(a1-6)[GlcNAc(b1-2)Man(a1-3)]Man(b1-4)GlcNAc(b1-4)GlcNAc
# In short: as §1
# [19] = biological target: Neu5Ac(a2-6)Gal(b1-4)GlcNAc(b1-2)Man(a1-6)[Man(a1-3)]Man(b1-4)GlcNAc(b1-4)GlcNAc
# In short: as §1
# [20] = biological target: Neu5Ac(a2-6)Gal(b1-4)GlcNAc(b1-2)[Neu5Ac(a2-6)Gal(b1-4)GlcNAc(b1-4)]Man(a1-3)[GlcNAc(b1-4)][Neu5Ac(a2-6)Gal(b1-4)GlcNAc(b1-2)[Neu5Ac(a2-6)Gal(b1-4)GlcNAc(b1-6)]Man(a1-6)]Man(b1-4)GlcNAc(b1-4)GlcNAc
# In short: as §1
# [21] = biological target: Neu5Ac(a2-6)Gal(b1-4)GlcNAc(b1-2)[Neu5Ac(a2-6)Gal(b1-4)GlcNAc(b1-4)]Man(a1-3)[GlcNAc(b1-4)][Neu5Ac(a2-6)Gal(b1-4)GlcNAc(b1-4)Man(a1-6)]Man(b1-4)GlcNAc(b1-4)GlcNAc
# In short: as §1
# [22] = biological target: Neu5Ac(a2-6)Gal(b1-4)GlcNAc(b1-2)[Neu5Ac(a2-6)Gal(b1-4)GlcNAc(b1-6)]Man(a1-6)[Neu5Ac(a2-6)Gal(b1-4)GlcNAc(b1-2)Man(a1-3)][GlcNAc(b1-4)]Man(b1-4)GlcNAc(b1-4)GlcNAc
# In short: as §1
# [23] = biological target: Neu5Ac(a2-6)Gal(b1-4)GlcNAc(b1-3)Gal(b1-3)GlcNAc
# In short: as §1
# [24] = biological target: Neu5Ac(a2-6)Gal(b1-4)GlcNAc(b1-3)Gal(b1-4)GlcNAc
# In short: as §1
# [25] = biological target: Neu5Ac(a2-6)Gal(b1-4)GlcNAc(b1-3)Gal(b1-4)GlcNAc(b1-2)Man(a1-3)[Neu5Ac(a2-6)Gal(b1-4)GlcNAc(b1-3)Gal(b1-4)GlcNAc(b1-2)Man(a1-6)]GalNAc
# In short: as §1
# [26] = biological target: Neu5Ac(a2-6)Gal(b1-4)GlcNAc(b1-3)Gal(b1-4)GlcNAc(b1-3)Gal(b1-4)GlcNAc
# In short: as §1
# [27] = biological target: Neu5Ac(a2-6)Gal(b1-4)GlcNAc(b1-3)Gal(b1-4)GlcNAc(b1-3)Gal(b1-4)GlcNAc(b1-2)Man(a1-3)[Neu5Ac(a2-6)Gal(b1-4)GlcNAc(b1-3)Gal(b1-4)GlcNAc(b1-3)Gal(b1-4)GlcNAc(b1-2)Man(a1-6)]GalNAc
# In short: as §1
# [28] = biological target: Neu5Ac(a2-6)Gal(b1-4)GlcNAc(b1-3)Gal(b1-4)GlcNAc(b1-3)GalNAc
# In short: as §1
# [29] = biological target: Neu5Ac(a2-6)Gal(b1-4)GlcNAc(b1-3)Gal(b1-4)GlcNAc(b1-3)[Neu5Ac(a2-6)Gal(b1-4)GlcNAc(b1-3)Gal(b1-4)GlcNAc(b1-6)]GalNAc
# In short: as §1
# [30] = biological target: Neu5Ac(a2-6)Gal(b1-4)GlcNAc(b1-3)Gal(b1-4)GlcNAc(b1-6)[Gal(b1-3)]GalNAc
# In short: as §1
# [31] = biological target: Neu5Ac(a2-6)Gal(b1-4)GlcNAc(b1-3)Gal(b1-4)[Fuc(a1-3)]GlcNAc(b1-3)Gal(b1-4)[Fuc(a1-3)]GlcNAc
# In short: as §1
# [32] = biological target: Neu5Ac(a2-6)Gal(b1-4)GlcNAc(b1-3)GalNAc
# In short: as §1
# [33] = biological target: Neu5Ac(a2-6)Gal(b1-4)GlcNAc(b1-3)[Neu5Ac(a2-6)Gal(b1-4)GlcNAc(b1-6)]GalNAc
# In short: as §1
# [34] = biological target: Neu5Ac(a2-6)Gal(b1-4)GlcNAc(b1-6)GalNAc
# In short: as §1
# [35] = biological target: Neu5Ac(a2-6)Gal(b1-4)GlcNAc(b1-6)[Gal(b1-3)GlcNAc(b1-3)]Gal(b1-4)Glc
# In short: as §1
binder,measurement,setting,value
B1,glycan array binding signal (z-score),Neu5Ac(a2-3)GalNAc,-0.088
same,glycan array binding signal (z-score),[1],-0.2
same,glycan array binding signal (z-score),[2],-0.164
same,glycan array binding signal (z-score),[3],-0.198
same,glycan array binding signal (z-score),[4],-0.171
same,glycan array binding signal (z-score),[5],-0.139
same,glycan array binding signal (z-score),Neu5Ac(a2-6)Gal,-0.176
same,glycan array binding signal (z-score),[6],-0.163
same,glycan array binding signal (z-score),Neu5Ac(a2-6)Gal(b1-4)Glc,-0.017
same,glycan array binding signal (z-score),[7],-0.14
same,glycan array binding signal (z-score),[8],-0.156
same,glycan array binding signal (z-score),[9],-0.156
same,glycan array binding signal (z-score),[10],-0.204
same,glycan array binding signal (z-score),[11],-0.107
same,glycan array binding signal (z-score),[12],-0.19
same,glycan array binding signal (z-score),[13],-0.171
same,glycan array binding signal (z-score),[14],-0.171
same,glycan array binding signal (z-score),[15],-0.194
same,glycan array binding signal (z-score),[16],-0.174
same,glycan array binding signal (z-score),[17],-0.195
same,glycan array binding signal (z-score),[18],0.01
same,glycan array binding signal (z-score),[19],-0.172
same,glycan array binding signal (z-score),[20],-0.026
same,glycan array binding signal (z-score),[21],-0.145
same,glycan array binding signal (z-score),[22],-0.183
same,glycan array binding signal (z-score),[23],-0.084
same,glycan array binding signal (z-score),[24],-0.149
same,glycan array binding signal (z-score),[25],-0.177
same,glycan array binding signal (z-score),[26],-0.161
same,glycan array binding signal (z-score),[27],-0.014
same,glycan array binding signal (z-score),[28],-0.157
same,glycan array binding signal (z-score),[29],-0.192
same,glycan array binding signal (z-score),[30],-0.16
same,glycan array binding signal (z-score),[31],0.126
same,glycan array binding signal (z-score),[32],-0.217
same,glycan array binding signal (z-score),[33],-0.107
same,glycan array binding signal (z-score),[34],-0.085
same,glycan array binding signal (z-score),[35],-0.205
